This is one part of the list. The full chains were built here from the parent and the listed change. Values near 0.05 are background.
B1: TEV protease; numbered along this chain (parent)
chain: MGESLFKGPRDYNPISSSICHLTNESDGHTTSLYGIGFGPFIITNKHLFRRNNGTLVVQSLHGVFKVKDTTTLQQHLVDGRDMIIIRMPKDFPPFPQKLKFREPQREERICLVTTNFQTKSMSSMVSDTSCTFPSGDGIFWKHWIQTKDGQCGSPLVSTRDGFIVGIHSASNFTNTNNYFTSVPKNFMELLTNQEAQQWVSGWRLNADSVLWGGHKVFMVKPEEPFQPVKEATQL

Variants of: B1
Assay: raw area under fraction-flipped curve 0-4 h after induction (AUC4h, not background-subtracted), DNA-recorder readout of cleavage of the substrate (dimensionless); higher = more cleavage of the substrate by the protease variant
Settings: temperature: 34 °C; time window: 0-4 h after rhamnose induction
Protocol: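 In vivo DNA recorder in E. coli TOP10(DE3) ΔrhaA at 34 °C. Each TEVp single-site mutant (parent TEVp 0) is paired with a single-site variant of the 7-mer TEVs (canonical ENLYFQ|S). The substrate sits between flexible linkers in a Bxb1-sfGFP-TEVs-SsrA fusion, so cleavage stabilises Bxb1 and speeds flipping of a recombination array, read by NGS. The value is the raw area under the fraction-flipped curve over 0-4 h after rhamnose induction (AUC4h), with ≥20 reads per time point. It is not background-subtracted; inactive controls average about 0.047.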
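Note: Bxb1 expression induced with 0.2% (w/v) L-rhamnose at OD600 near 0.5, cultures sampled hourly, flipped fraction per protease–substrate barcode pair counted by paired-end Illumina sequencing.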

Variant	area with substrate ENLYFAS	area with substrate ENLYFCS	area with substrate ENLYFDS	area with substrate ENLYFES	area with substrate ENLYFFS	area with substrate ENLYFGS	area with substrate ENLYFIS	area with substrate ENLYFKS	area with substrate ENLYFLS	area with substrate ENLYFMS	area with substrate ENLYFNS	area with substrate ENLYFPS	area with substrate ENLYFRS	area with substrate ENLYFSS	area with substrate ENLYFVS	area with substrate ENLYFWS	area with substrate ENLYFHS	area with substrate ENLYFTS	area with substrate ENLYFYS
V113P	0.0608	0.0498	0.059	0.0592	0.0587	0.0552	0.0488	0.0637	0.078	0.0609	0.0665	0.0586	0.044	0.0605	0.0316	0.0545	–	–	–
R106F	0.0519	0.0511	0.0819	–	0.0655	0.0697	0.0485	–	0.055	0.0645	–	0.0615	0.0668	–	0.0625	0.0598	0.0564	0.0581	0.057
V67L	0.0596	–	–	–	–	–	0.0614	0.0608	0.0534	0.0612	0.0927	0.0568	–	–	–	–	0.0591	0.0548	0.0641
V67T	0.0641	–	–	0.0568	0.0593	0.0726	0.0487	–	–	0.0745	0.0612	0.0546	0.0293	–	–	0.0523	0.0651	0.0368	0.0284
E103L	0.0626	–	0.0661	0.143	–	0.059	0.0565	–	–	0.0587	0.074	0.0541	–	–	–	–	0.0907	0.0607	–
Q75C	0.0572	0.0723	0.0552	0.0677	0.0378	0.0403	0.0538	–	0.0491	0.0633	–	0.0617	–	0.0539	–	–	0.0486	0.0693	–
Q118T	0.0652	–	–	–	–	–	0.0621	–	–	0.0497	0.0571	–	–	–	–	–	0.0491	0.0468	–
M125T	0.0672	0.0486	0.0548	0.074	0.0792	–	0.0593	0.0581	0.0607	0.0571	0.0604	0.0596	0.0605	0.0604	0.0542	0.0564	0.0721	–	–
M125V	0.0597	0.0703	–	0.0655	0.0652	–	0.0675	–	–	0.0813	0.058	0.0556	0.0743	–	–	0.0645	0.06	0.0626	–
T71W	0.0521	–	0.0177	–	–	0.0606	0.0493	–	0.0592	0.0646	–	0.0464	–	0.0608	0.0542	–	0.0651	–	0.0544
T71C	0.0594	0.0504	–	0.0544	0.0622	–	0.0697	–	–	0.0612	0.0553	0.0537	0.0419	0.0515	0.0676	–	–	0.0591	–
T71L	0.0515	0.068	–	0.062	0.0588	0.0954	0.0387	0.069	–	–	0.0469	–	–	–	0.0605	–	0.043	0.0497	0.0452
K68T	0.0588	–	0.0418	0.0433	–	0.062	0.0631	0.0647	–	0.079	0.0619	0.0409	0.0576	–	–	0.0511	0.0372	0.0671	0.0378
E108T	0.0436	0.051	0.0578	0.0471	0.075	–	0.0534	0.0579	–	0.0647	0.0585	0.0451	0.058	0.018	0.0475	0.0434	–	–	–
R102T	0.0633	0.044	–	0.0517	0.0744	0.054	0.049	0.0601	0.05	0.0258	–	0.0566	0.028	–	–	0.0543	–	0.0527	–
R102C	0.0721	0.0493	–	–	0.0592	0.041	0.0515	–	–	0.0529	–	0.0588	0.0489	0.0345	0.0544	0.0441	–	0.0507	–
K98I	0.0765	0.0552	0.0536	0.0732	0.0583	0.0535	0.05	0.0675	–	0.0748	0.042	0.0571	0.0664	0.0569	–	0.0543	–	0.0645	0.0616
C111Y	0.0563	0.0572	0.053	0.0675	0.0659	–	0.0556	0.0622	0.069	0.077	0.0538	0.0609	0.0492	0.0522	0.0393	0.0526	0.0674	0.043	0.0588
S135A	0.0531	0.0753	0.0656	0.0686	0.0657	–	0.0583	0.065	0.0674	0.0612	–	0.0574	0.0679	–	0.0539	–	0.0513	0.0812	0.0604
D91H	0.0664	0.0619	–	0.0736	0.0621	0.0679	0.058	0.0655	0.0466	0.0649	–	0.0624	0.036	0.0586	0.0824	0.0571	0.0559	–	0.0666
D91A	0.0482	0.0582	0.0582	–	0.0609	–	0.0557	0.0481	0.0604	0.0667	–	0.0351	–	–	–	–	0.0574	0.0622	–
T132V	0.0573	0.0654	0.0625	0.0476	0.0675	–	0.056	0.0565	0.0574	0.0641	0.0681	0.0641	–	0.0663	0.0535	0.0493	0.0647	0.0606	0.0501
M122E	0.0616	–	–	0.0754	0.0732	–	0.0398	0.0666	–	0.0703	0.0726	0.068	0.0492	–	0.0538	0.0566	–	0.0627	0.0525
K100E	0.0935	–	–	0.0733	–	–	0.0529	0.0387	–	0.0569	0.0625	–	–	–	–	–	–	0.0629	–
K100V	0.0515	0.0235	–	0.0763	0.0612	–	0.0572	0.0907	0.0465	0.0682	–	0.0635	0.0581	0.0597	0.0478	0.0534	0.0533	0.0492	–
K100R	0.0553	–	0.0633	0.062	0.0708	–	–	0.102	–	–	0.0661	0.0566	–	0.0596	0.0482	0.0623	0.0534	–	0.0512
K100L	0.0523	–	–	0.0618	0.0618	–	0.0669	0.0513	–	0.0701	–	0.0556	–	–	0.0722	–	0.0553	0.0451	–

Reference: the supplement of paper PMC12217912
